Drawing on the antibiotic and cytotoxicity screens of Wong et al. (2023), this text covers cytotoxicity call and growth inhibition call for 27 molecules.

Some of the results follow.

Test [1] concerns HSkMC (human skeletal muscle cells). Briefly: cytotoxicity call (relative viability < 0.9). Particulars: 10 µM.
Test [2] has as its system HepG2. The test can be described thus: cytotoxicity call (relative viability < 0.9). Conditions: 10 µM.
Test [3] deals with S. aureus RN4220. The test can be described thus: growth inhibition call (relative growth <= 0.2). Particulars: 50 µM.

Take `C[C@@H]1CN([C@@H](C)CO)S(=O)(=O)c2ccc(C#Cc3ccccc3F)cc2O[C@H]1CN(C)C(=O)c1ccc2c(c1)OCO2`: the cytotoxicity call in test [1] is “active”. In addition, the cytotoxicity call in test [2] is “inactive”. In test [3], the growth inhibition call is “inactive”.

As to `C[C@@H]1CCCCO[C@H](CN(C)Cc2ccc(C(F)(F)F)cc2)[C@@H](C)CN([C@H](C)CO)C(=O)c2cc(NC(=O)Nc3ccc(F)cc3)ccc2O1`, the cytotoxicity call in test [1] and in test [2] was “inactive” throughout. In test [3], the growth inhibition call is “inactive”.

`CN1CCN(CCO)CC1`: the cytotoxicity call in test [1] and in test [2] was “inactive” each time. In addition, the growth inhibition call in test [3] was “inactive”.

With `O=C(NO)c1ccc(C(=O)N/N=C/[C@H](O)[C@@H](O)[C@H](O)[C@H](O)CO)cc1`, the cytotoxicity call in test [1] and in test [2] was “inactive” in each case. Further, the growth inhibition call in test [3] was “inactive”.

Consider `OC1(Cn2ccnc2)CCNCC1`, for which the cytotoxicity call in test [1] and in test [2] was “inactive” each time. Besides, the growth inhibition call in test [3] is “inactive”.

`CC(C)NC(=O)N(C)C[C@H]1OCc2cnnn2CCCC(=O)N([C@@H](C)CO)C[C@@H]1C`: the cytotoxicity call in test [1] and in test [2] was “inactive” each time. Also, the growth inhibition call in test [3] is “inactive”.

Consider `C[N+](C)(C)CCCCNC(=O)[C@@H]1C[C@@H]2C(=O)NCC(=O)N2[C@@H]1c1ccc(O)cc1`, for which the cytotoxicity call in test [1] and in test [2] was “inactive” each time. Further, the growth inhibition call in test [3] was “inactive”.

Regarding `CCOC(=O)c1ncn2c1CN(C)C(=O)c1cc(F)ccc1-2`, the cytotoxicity call in test [1] and in test [2] was “inactive” in each case. Besides, the growth inhibition call in test [3] was “inactive”.

For `COc1ccc(S(=O)(=O)N(C)C[C@@H]2Oc3ccc(NS(=O)(=O)c4ccc(F)cc4)cc3C(=O)N([C@H](C)CO)C[C@H]2C)cc1`, the cytotoxicity call in test [1] and in test [2] was “inactive” throughout. Besides, the growth inhibition call in test [3] is “inactive”.

Turning to `COc1cccc(NC(=O)N(C)C[C@H]2Oc3ncc(C#Cc4cccnc4)cc3C(=O)N([C@@H](C)CO)C[C@@H]2C)c1`, the cytotoxicity call in test [1] and in test [2] was “inactive” in each case. Further, in test [3], the growth inhibition call is “inactive”.

On to `Cc1noc(C)c1NC(=O)N(C)C[C@H]1Oc2ccc(NC(=O)NC(C)C)cc2C(=O)N([C@@H](C)CO)C[C@H]1C`, for which the cytotoxicity call in test [1] and in test [2] was “inactive” in each case. The growth inhibition call in test [3] was “inactive”.

Regarding `C[C@H]1CN([C@@H](C)CO)C(=O)c2cccc(NC(=O)Nc3ccc(C(F)(F)F)cc3)c2O[C@@H]1CN(C)S(=O)(=O)c1ccc(Cl)cc1`, the cytotoxicity call in test [1] is “active”. The cytotoxicity call in test [2] is “inactive”. Also, the growth inhibition call in test [3] was “inactive”.

As for `COc1ccc(C#Cc2ccc([C@H]3[C@H]4CN(S(=O)(=O)c5cn(C)cn5)CCCCN4[C@H]3CO)cc2)cc1`, the cytotoxicity call in test [1] and in test [2] was “inactive” each time. In test [3], the growth inhibition call was “inactive”.

With `C[C@@H]1CCCCO[C@@H](CN(C)S(=O)(=O)c2ccc(F)cc2)[C@H](C)CN([C@H](C)CO)C(=O)c2cc(NC(=O)Nc3cccc4ccccc34)ccc2O1`, the cytotoxicity call in test [1] and in test [2] was “inactive” each time. The growth inhibition call in test [3] is “inactive”.

With `C[C@H](CO)N1C[C@H](C)[C@H](CN(C)C(=O)Nc2ccc(F)cc2)Oc2c(NC(=O)CCCCCC(=O)Nc3ccccc3N)cccc2C1=O`, the cytotoxicity call in test [1] and in test [2] was “inactive” each time. Also, the growth inhibition call in test [3] is “inactive”.

`CN(C)C(=O)C[C@@H]1CC[C@H](NC(=O)C2CCOCC2)[C@@H](CO)O1`: the cytotoxicity call in test [1] and in test [2] was “inactive” throughout. Moreover, the growth inhibition call in test [3] was “inactive”.

For the molecule `C[C@@H]1CN([C@H](C)CO)C(=O)Cc2cc(NC(=O)CCCN(C)C)ccc2O[C@@H]1CN(C)S(=O)(=O)c1cccs1`, the cytotoxicity call in test [1] and in test [2] was “inactive” throughout. For the same molecule, the growth inhibition call in test [3] is “inactive”.

In the case of `C[C@@H]1CN([C@@H](C)CO)C(=O)c2cc(NS(C)(=O)=O)ccc2O[C@H]1CN(C)S(=O)(=O)c1ccc(F)cc1`, the cytotoxicity call in test [1] and in test [2] was “inactive” each time. Moreover, the growth inhibition call in test [3] is “inactive”.

Take `C[C@@H]1CN([C@@H](C)CO)C(=O)Cc2cc(NC(=O)Nc3ccc(C(F)(F)F)cc3)ccc2O[C@H]1CN(C)Cc1ccc(-c2ccccc2)cc1`: the cytotoxicity call in test [1] and in test [2] was “active” throughout. The growth inhibition call in test [3] is “inactive”.

For `COc1ccc2c3c(n(c2c1)C)[C@H](CO)N(C[C@]13CCN(CC1)C(=O)c1ccccn1)C(=O)c1ccccn1`, the cytotoxicity call in test [1] and in test [2] was “inactive” in each case. Moreover, the growth inhibition call in test [3] is “inactive”.

`C[C@@H]1CN([C@@H](C)CO)S(=O)(=O)c2ccc(C#CCN(C)C)cc2O[C@H]1CN(C)S(C)(=O)=O`: the cytotoxicity call in test [1] and in test [2] was “inactive” each time. For the same molecule, in test [3], the growth inhibition call is “inactive”.

Regarding `C[C@H](CO)N1C[C@H](C)[C@H](CN(C)Cc2ccc(C(F)(F)F)cc2)Oc2c(NC(=O)c3nc4ccccc4s3)cccc2C1=O`, the cytotoxicity call in test [1] and in test [2] was “inactive” each time. Moreover, the growth inhibition call in test [3] is “inactive”.

With `CC(C)C[C@@H](N)C(=O)NC1CCN(C(=O)C2CCCC2)CC1`, the cytotoxicity call in test [1] and in test [2] was “inactive” in each case. The growth inhibition call in test [3] is “inactive”.

On to `COc1ccc(-c2cnc3c(c2)C(=O)N([C@@H](C)CO)C[C@H](C)[C@@H](CN(C)S(=O)(=O)c2ccc(OC)cc2)O3)cc1`, for which the cytotoxicity call in test [1] and in test [2] was “inactive” in each case. Also, in test [3], the growth inhibition call is “inactive”.

Consider `C[C@H]1CN([C@@H](C)CO)C(=O)Cc2cc(NS(=O)(=O)c3cccs3)ccc2O[C@H]1CN(C)Cc1ccc(Cl)c(Cl)c1`, for which the cytotoxicity call in test [1] and in test [2] was “active” each time. Further, in test [3], the growth inhibition call is “inactive”.

Consider `C[C@H]1CN([C@@H](C)CO)C(=O)c2cc(-c3cccnc3)cnc2O[C@H]1CN(C)Cc1ccc(Oc2ccccc2)cc1`, for which the cytotoxicity call in test [1] and in test [2] was “inactive” in each case. Besides, the growth inhibition call in test [3] was “inactive”.

On to `C[C@H]1CCCCO[C@H](CN(C)S(C)(=O)=O)[C@@H](C)CN([C@@H](C)CO)C(=O)c2cc(NS(=O)(=O)c3ccccc3)ccc2O1`, for which the cytotoxicity call in test [1] and in test [2] was “inactive” throughout. Besides, the growth inhibition call in test [3] was “inactive”.
